The structures appear in SMILES notation. Hit rate of the full screen: of about 310,000 compounds, about 2,200 (0.71%) showed an effect of 50% or more. The effect is printed as a negative number. This is one part of the list.

The target of this experiment is human ether-à-go-go-related gene (hERG) potassium channel (human, UniProt Q12809). Put plainly: primary screen, population patch clamp on CHO cells stably expressing hERG.
human ether-à-go-go-related gene (hERG) potassium channel, sequence (Q12809 whole entry, looked up): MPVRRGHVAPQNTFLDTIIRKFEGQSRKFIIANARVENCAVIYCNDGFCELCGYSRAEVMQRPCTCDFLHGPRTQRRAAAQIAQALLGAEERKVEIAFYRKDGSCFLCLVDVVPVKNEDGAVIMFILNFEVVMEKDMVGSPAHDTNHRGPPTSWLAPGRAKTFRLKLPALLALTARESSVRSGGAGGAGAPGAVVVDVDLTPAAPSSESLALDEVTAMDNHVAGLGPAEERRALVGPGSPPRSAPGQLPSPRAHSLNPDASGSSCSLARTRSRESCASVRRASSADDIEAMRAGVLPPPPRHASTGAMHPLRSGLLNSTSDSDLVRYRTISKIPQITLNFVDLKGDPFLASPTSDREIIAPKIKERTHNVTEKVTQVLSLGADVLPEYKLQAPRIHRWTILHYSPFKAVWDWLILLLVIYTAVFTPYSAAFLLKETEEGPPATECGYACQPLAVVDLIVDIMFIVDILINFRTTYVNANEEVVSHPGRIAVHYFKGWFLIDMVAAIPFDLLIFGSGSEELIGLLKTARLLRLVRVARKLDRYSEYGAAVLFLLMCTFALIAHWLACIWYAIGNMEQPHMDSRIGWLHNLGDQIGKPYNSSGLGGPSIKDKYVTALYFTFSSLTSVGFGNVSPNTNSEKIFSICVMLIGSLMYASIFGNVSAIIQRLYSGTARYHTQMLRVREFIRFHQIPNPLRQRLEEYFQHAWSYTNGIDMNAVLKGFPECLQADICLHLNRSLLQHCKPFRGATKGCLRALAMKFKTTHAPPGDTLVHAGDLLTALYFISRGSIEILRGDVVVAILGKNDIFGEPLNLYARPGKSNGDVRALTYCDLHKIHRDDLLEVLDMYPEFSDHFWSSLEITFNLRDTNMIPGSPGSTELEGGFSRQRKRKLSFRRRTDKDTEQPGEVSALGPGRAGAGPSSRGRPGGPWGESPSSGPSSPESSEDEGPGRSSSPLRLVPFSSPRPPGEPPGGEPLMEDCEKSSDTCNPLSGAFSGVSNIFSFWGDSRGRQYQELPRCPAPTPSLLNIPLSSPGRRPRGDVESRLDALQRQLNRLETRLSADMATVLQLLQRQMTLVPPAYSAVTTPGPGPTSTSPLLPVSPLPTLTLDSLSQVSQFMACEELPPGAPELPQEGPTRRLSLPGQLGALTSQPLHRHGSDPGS
For the molecule `Cc1ccc(CNC(=O)Cn2c(=O)n(-c3ccccc3)c(=O)c3sccc32)cc1`, the “hERG current change (%, negative = inhibition) at 1uM” value stood at 3.22%.
With `COC(=O)/C=C/C(=O)N1CCN(c2ccccc2)CC1`, the “hERG current change (%, negative = inhibition) at 1uM” value is recorded as -4.62%.
Next, `O=C1CC(/C=C/c2cccnc2)=Nc2ccccc2N1`: 10.3%; `Cc1cc(=O)[nH]c(CCl)n1`: 16.8%.
For `Clc1ccc(/C=N\Nc2ccccc2)cc1`, the “hERG current change (%, negative = inhibition) at 1uM” value is 13.6%.
As for `CC(C)OCCCn1c(=O)c2ccccc2n2c(CCC(=O)NC3CCN(Cc4ccccc4)CC3)nnc12`, the “hERG current change (%, negative = inhibition) at 1uM” value was found to be 6.09%.
Consider `C#CCNc1cc(C)nc2ncnn12`, for which the “hERG current change (%, negative = inhibition) at 1uM” value was determined as 6.02%.
As for `CC(C)(C)OC(=O)N1CCC(CNC(=O)c2ccc(F)cc2)CC1`, the “hERG current change (%, negative = inhibition) at 1uM” value was 10.3%.
Regarding `CC(OC(=O)Cc1ccc(Cl)cc1)C(=O)NCCC1=CCCCC1` (stereo not shown), the “hERG current change (%, negative = inhibition) at 1uM” value came out at 2.14%.
On to `O=C(O)COc1nsnc1N1CCOCC1`, for which the “hERG current change (%, negative = inhibition) at 1uM” value is reported as 12.3%.
For `CCC(Oc1ccc2ccccc2c1)C(=O)O` (stereo not shown), the “hERG current change (%, negative = inhibition) at 1uM” value was 9.45%.
Regarding `Cc1cccc(NC(=S)NCc2ccccn2)c1`, the “hERG current change (%, negative = inhibition) at 1uM” value was found to be 16.6%.
Next, `CCN(CC(=O)Nc1ccccc1C(F)(F)F)C(=O)CN1C(=O)NC(C)(c2ccccc2)C1=O` (stereo not shown): 20.5%; `O=C1c2ccccc2-c2cccc(C(=O)N3CCCCC3)c21`: 9.76%.
For the molecule `COc1cccc(-n2nc3c(-n4ncc(C#N)c4N)nnc(C)c3c2C)c1`, the “hERG current change (%, negative = inhibition) at 1uM” value is reported as 1.81%.
Turning to `O=C(O)/C=C/c1cn(-c2ccccc2)nc1-c1ccc2c(c1)OCCO2`, the “hERG current change (%, negative = inhibition) at 1uM” value is listed as 3.62%.
On to `Cc1ccc(C)c(N2CCN(S(=O)(=O)c3ccc4c(c3)NC(=O)CO4)CC2)c1`, for which the “hERG current change (%, negative = inhibition) at 1uM” value came to 14.8%.
Turning to `COc1cc(NC(=O)c2ccc3c(c2)S(=O)(=O)N=C2CCCCCN23)cc(OC)c1`, the “hERG current change (%, negative = inhibition) at 1uM” value is 10.3%.
With `CN(C)c1ccc(N2CN=C3SCC(=O)N3C2)cc1`, the “hERG current change (%, negative = inhibition) at 1uM” value was 13%.
Regarding `NS(=O)(=O)c1ccc(CCNC(=O)c2ccc(NS(=O)(=O)c3ccc4[nH]c(=O)[nH]c4c3)cc2)cc1`, the “hERG current change (%, negative = inhibition) at 1uM” value is reported as 9.43%.
Next, `COc1ccccc1CNc1ccc(Br)cn1`: 7.94%.
Consider `CCOC(=O)c1cccc(NC(=O)CN(c2ccc(C)cc2)S(=O)(=O)c2c(C)noc2C)c1`, for which the “hERG current change (%, negative = inhibition) at 1uM” value worked out at 12.9%.
The figure for `COc1ccc(C2c3c(-c4ccccc4O)n[nH]c3C(=O)N2Cc2ccco2)cc1` (stereo not shown) is 5.39%.
On to `O=C(NN=C1C2CC3CC1CC(Cl)(C3)C2)c1cccs1`, for which the “hERG current change (%, negative = inhibition) at 1uM” value is 11.3%.
Consider `C=CCN1C(=O)c2ccc(C(=O)N3CCN(S(=O)(=O)c4cc(C)ccc4C)CC3)cc2C1=O`, for which the “hERG current change (%, negative = inhibition) at 1uM” value turned out to be 3.79%.
As for `Cc1ccc(NC(=O)CN2C(=O)S/C(=C\c3cccn3-c3cccc(C(=O)O)c3)C2=O)cc1C`, the “hERG current change (%, negative = inhibition) at 1uM” value came out at 14.3%.
Turning to `Cc1ccc(NC(=S)NCCc2c[nH]c3ccccc23)c(C)c1`, the “hERG current change (%, negative = inhibition) at 1uM” value amounted to 4.24%.
`COc1ccc(S(=O)(=O)Nc2cc(C)on2)cc1OC`: the “hERG current change (%, negative = inhibition) at 1uM” value came out at 10.3%.
For the molecule `S=C(N/N=C/c1ccc2c(c1)OCO2)NC1CC2CCC1C2` (stereo not shown), the “hERG current change (%, negative = inhibition) at 1uM” value stood at 16%.
Take `Cc1cc(-c2ccccc2)c2c(=O)n(-c3ccccc3)[nH]c2n1`: the “hERG current change (%, negative = inhibition) at 1uM” value came out at 13.2%.
The figure for `CC(C)N1CCC2(CC1)Oc1ccc(Br)cc1C1CC(c3cccnc3)=NN12` (stereo not shown) is -2.29%; for `CCCCn1c(SCC(=O)NCC2CCCO2)nc2ccc(N3CCOCC3)cc2c1=O` (stereo not shown) it is -10.4%.
In the case of `OC1(c2ccc(F)cc2)CN(c2ccccc2)C2=[N+]1CCS2.[Br-]` (stereo not shown), the “hERG current change (%, negative = inhibition) at 1uM” value was found to be 12.9%.
Take `CCOC(=O)c1cccc(NC(=O)CN(c2ccc(C)cc2)S(=O)(=O)c2c(C)n[nH]c2C)c1`: the “hERG current change (%, negative = inhibition) at 1uM” value is given as 2.14%.
Next, `O=C(CCS(=O)(=O)Cc1ccc(Cl)cc1)NCCc1ccccc1`: 2.18%.
Regarding `Cc1ccc(NC(=O)CSCc2cc(=O)n3cc(C)sc3n2)cc1`, the “hERG current change (%, negative = inhibition) at 1uM” value is on record as 14.2%.
Regarding `O=C(CSc1nnc(Cc2ccccc2)o1)N1CCOCC1`, the “hERG current change (%, negative = inhibition) at 1uM” value was 11.7%.
For the molecule `COc1ccccc1-c1nc(-c2ccccn2)no1`, the “hERG current change (%, negative = inhibition) at 1uM” value came to 17.9%.
Take `Cc1ccc(Sc2cc(C(=O)NCCCN(C)C)c3ccccc3n2)cc1`: the “hERG current change (%, negative = inhibition) at 1uM” value worked out at 2.23%.
For `O=C(CSc1nnc(CNc2ccc(Cl)cc2)o1)Nc1nc2ccccc2s1`, the “hERG current change (%, negative = inhibition) at 1uM” value is recorded as 6.79%.
For the molecule `CCOC(=O)C/C(C)=N/NC(=O)COc1ccccc1C`, the “hERG current change (%, negative = inhibition) at 1uM” value was 3.23%.
With `COc1ccccc1NC(=O)NCCN1CCCCC1`, the “hERG current change (%, negative = inhibition) at 1uM” value was 5.82%.
The figure for `Cc1ccc(-n2c(N)c(C(N)=O)sc2=S)cc1` is 6.78%.
Turning to `Cl.NC(=O)c1ccc(OCCC(O)N2CC=C(c3ccc(F)cc3)CC2)cc1` (stereo not shown), the “hERG current change (%, negative = inhibition) at 1uM” value was -53%.
Next, `O=C(N/N=C/c1ccco1)c1cc(Br)ccc1OCc1ccccc1`: 10.1%.
The figure for `CCc1ccc(N=c2c([N+](=O)[O-])nn(-c3ccccc3)n2O)cc1` is -5.97%; for `CCn1c(C)nnc1SCC(=O)Nc1ccc(Cl)cc1` it is 10.8%.
For the molecule `Cc1cc(C2=CC(=O)C[C@H](c3ccc4c(c3)OCO4)C2)ccc1F`, the “hERG current change (%, negative = inhibition) at 1uM” value came out at 9.21%.
Regarding `COC1CCN(Cc2c(C(=O)N3CCN(C4CCCCC4)CC3)nc3ccccn23)CC1`, the “hERG current change (%, negative = inhibition) at 1uM” value is on record as 12.3%.
With `O=C(Nc1cccc(S(=O)(=O)N2CCCCCC2)c1)c1ccc(=O)[nH]c1`, the “hERG current change (%, negative = inhibition) at 1uM” value is reported as 2.88%.
With `Cc1ccc(S(=O)(=O)NC(=O)c2ccc(-c3ccc(C)c4ccccc34)o2)cc1`, the “hERG current change (%, negative = inhibition) at 1uM” value worked out at 2.14%.
As to `COc1cc(C(=S)N2CCOCC2)cc(OC)c1OC(=O)c1ccc(C)cc1`, the “hERG current change (%, negative = inhibition) at 1uM” value is 8.36%.
Consider `COc1ccc(OC)c(NC(=O)Nc2ccc(O)c3ccccc23)c1`, for which the “hERG current change (%, negative = inhibition) at 1uM” value was 14%.
Consider `C/C(=N/Nc1nc(-c2ccccc2F)nc2ccccc12)c1ccccc1O`, for which the “hERG current change (%, negative = inhibition) at 1uM” value was 3.53%.
Regarding `CC(=O)c1cccc(-n2nnnc2SCC(=O)N2CCCC2)c1`, the “hERG current change (%, negative = inhibition) at 1uM” value is recorded as 7.78%.
The figure for `O=C(Nc1nc(-c2ccccc2)cs1)c1ccc(=O)[nH]c1` is 0.955%; for `CC(=O)Nc1ccc(S(=O)(=O)NCC(=O)OCC(=O)NC23CC4CC(CC(C4)C2)C3)cc1` it is 8.5%.
`COC(=O)CSc1ccc(-c2nc3ccc(C)cc3[nH]2)cn1`: the “hERG current change (%, negative = inhibition) at 1uM” value was found to be 11%.

For the origin of these results see PMC4336329 (PLoS ONE, 2015).
